To fix the notation:
B1: glmS ribozyme (parent)
chain: AUAAAAGCGCCAGAACUACAGAAAUGUAGUUGACGAGGAGGAGGUUUAUCGAAUUUUCGGCGGAUGCCUCCAAA

What all share (conditions): with glucosamine-6-phosphate
Data set [1] covers variants of B1. Kind of data set: self-cleavage kobs at 40 uM GlcN6P; higher = faster cleavage; RNA array. In outline: (§1)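 Tiles of sequenced MiSeq chips were imaged over ~14 h at 37 °C. On them, barcoded ribozyme variants had been transcribed in situ by E. coli RNA polymerase and were tracked via a hybridised Cy3 probe while glucosamine-6-phosphate (40 μM to 10 mM) in HEPES/KCl/Mg(OAc)2 buffer flowed in. Per-tile medians, normalised to baseline and to non-cleaving reference variants, were fit to one- or two-exponential decays for kobs, and weighted Michaelis–Menten fits gave kcat and KM.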

The variants in data set [2] derive from B1. As to the kind of experiment: self-cleavage kobs at 10000 uM GlcN6P; higher = faster cleavage; RNA array. A digest of the protocol: as §1
Data set [3] covers variants of B1. Kind of data set: self-cleavage kobs at 640 uM GlcN6P; higher = faster cleavage; RNA array. In outline:
as §1

The variants in data set [4] derive from B1. As to the kind of experiment: self-cleavage kobs at 160 uM GlcN6P; higher = faster cleavage; RNA array. In outline:
as §1

The variants in data set [5] derive from B1. As to the kind of experiment: self-cleavage kobs at 2500 uM GlcN6P; higher = faster cleavage; RNA array. A digest of the protocol:
as §1

This note sets out measurements from the supplement of paper PMC7125110.

± gives the standard error. Variants at the background level are over-represented here.

In the case of AUAAAAGCGCCAGAACUACAGAAAUGUAGUUGACGAGGAUGCGUUUUAUCUAAUUUUCGGCGGAUGUCUCCAAA, the “self-cleavage kobs at 40 uM GlcN6P” value in data set [1] was < 1e-05 s⁻¹. For the same variant, the “self-cleavage kobs at 10000 uM GlcN6P” value in data set [2] is < 1e-05 s⁻¹.

Consider AUAAAAGCGCCAGAACUACAGAAAUGUAGUUGACGAGGAGCAGGUUUAUCGAAUUUUCGGCAGAUGCCUCCAAA, for which, in data set [1], the “self-cleavage kobs at 40 uM GlcN6P” value is < 1e-05 s⁻¹. Also, the “self-cleavage kobs at 640 uM GlcN6P” value in data set [3] was < 1e-05 s⁻¹. Besides, the “self-cleavage kobs at 160 uM GlcN6P” value in data set [4] was < 1e-05 s⁻¹. Further, the “self-cleavage kobs at 2500 uM GlcN6P” value in data set [5] was < 1e-05 s⁻¹. For the same variant, the “self-cleavage kobs at 10000 uM GlcN6P” value in data set [2] was < 1e-05 s⁻¹.

For AUAAAAGCGCCAGAACUACAGAAAUGUAGUUGACGAGGUGGAGGGUUAUCGAAUUUUCGGCGGAUGCCUCCAAA, the “self-cleavage kobs at 40 uM GlcN6P” value in data set [1] is 0.000146 ± 2e-05 s⁻¹. The “self-cleavage kobs at 640 uM GlcN6P” value in data set [3] was determined as 0.00165 ± 0.00028 s⁻¹. For the same variant, the “self-cleavage kobs at 160 uM GlcN6P” value in data set [4] stood at 0.000471 ± 8.8e-05 s⁻¹. Besides, the “self-cleavage kobs at 2500 uM GlcN6P” value in data set [5] was determined as 0.00481 ± 0.00079 s⁻¹. In data set [2], the “self-cleavage kobs at 10000 uM GlcN6P” value came out at 0.00711 ± 0.00075 s⁻¹.

For AUAAAAGCGCCAGAACUACAGAAAUGUAGUUGACGAGGACGAGGUUUAUCGAAUUUUCGGCGAAUGACUCCAAA, the “self-cleavage kobs at 40 uM GlcN6P” value in data set [1] is < 1e-05 s⁻¹. Also, in data set [2], the “self-cleavage kobs at 10000 uM GlcN6P” value is < 1e-05 s⁻¹.

For the variant AUAAAAGCGCCAGAACUACAGAAAUGUAGUUGACGAGGAGAAGGUUUAUCGAAUUUUCGGCGGAUGCAUCCAAA, the “self-cleavage kobs at 40 uM GlcN6P” value in data set [1] is < 1e-05 s⁻¹. Moreover, the “self-cleavage kobs at 640 uM GlcN6P” value in data set [3] was < 1e-05 s⁻¹. The “self-cleavage kobs at 160 uM GlcN6P” value in data set [4] is < 1e-05 s⁻¹. For the same variant, the “self-cleavage kobs at 2500 uM GlcN6P” value in data set [5] is < 1e-05 s⁻¹. Also, the “self-cleavage kobs at 10000 uM GlcN6P” value in data set [2] was < 1e-05 s⁻¹.

With AUAAAAGCGCCAGAACUACAGAAAUGUAGUUGACGAGGAUGAGGUUUAUCGAAUUUUCGGCGUAUGCCUCCAAA, the “self-cleavage kobs at 40 uM GlcN6P” value in data set [1] was < 1e-05 s⁻¹.

On to AUAAAAGCGCCAGAACUACAGAAAUGUAGUUGACGAGGUGGCGGUUUAUGGAAUUUUCGGCGGAUGCCUGCAAA, for which, in data set [1], the “self-cleavage kobs at 40 uM GlcN6P” value was < 1e-05 s⁻¹.

For the variant AUAAAAGCGCCAGAACUACAGAAAUGUAGUUGACGAGGAUGAGGUUUAUUGAAUUUUCGGCGGAUGCCUCCAAA, in data set [1], the “self-cleavage kobs at 40 uM GlcN6P” value was < 1e-05 s⁻¹. Besides, the “self-cleavage kobs at 640 uM GlcN6P” value in data set [3] is < 1e-05 s⁻¹. Also, in data set [4], the “self-cleavage kobs at 160 uM GlcN6P” value was < 1e-05 s⁻¹. Besides, the “self-cleavage kobs at 10000 uM GlcN6P” value in data set [2] is < 1e-05 s⁻¹.

Regarding AUAAAAGCGCCAGAACUACAGAAAUGUAGUUGACGAGGAAGAGGUUUAUCGAAUUUUUGGCGGAUGCCUCCAAA, the “self-cleavage kobs at 40 uM GlcN6P” value in data set [1] was < 1e-05 s⁻¹.

For AUAAAAGCGCCAGAACUACAGAAAUGUAGUUGACGAGGGGGAGGUUUAUCGAAUUUUCGACGGAUGCCUCCAAA, the “self-cleavage kobs at 40 uM GlcN6P” value in data set [1] is < 1e-05 s⁻¹.

As for AUAAAAGCGCCAGAACUACAGAAAUGUAGUUGACGAGGAGCAGGUUUAUCAAAUUUUCGGCGGAUACCUCCAAA, in data set [1], the “self-cleavage kobs at 40 uM GlcN6P” value was < 1e-05 s⁻¹. Further, in data set [2], the “self-cleavage kobs at 10000 uM GlcN6P” value was < 1e-05 s⁻¹.

AUAAAAGCGCCAGAACUACAGAAAUGUAGUUGACGAGGAGUAGGUUUAUCGUCUUUUCGCCGGAUGCCUCCAAA: in data set [1], the “self-cleavage kobs at 40 uM GlcN6P” value was < 1e-05 s⁻¹.

Turning to AUAAAAGCGCCAGAACUACAGAAAUGUAGUUGACGAGGAGAAAGUUUAUCGAAUUUUCGGCGGAUGCCUCCAAA, the “self-cleavage kobs at 40 uM GlcN6P” value in data set [1] was < 1e-05 s⁻¹. Further, the “self-cleavage kobs at 640 uM GlcN6P” value in data set [3] is < 1e-05 s⁻¹. Further, the “self-cleavage kobs at 2500 uM GlcN6P” value in data set [5] is < 1e-05 s⁻¹. The “self-cleavage kobs at 10000 uM GlcN6P” value in data set [2] is < 1e-05 s⁻¹.

For AUAAAAGCGCCAGAACUACAGAAAUGUAGUUGACGAGGAAGAGGUUUAUCAAAUUUUGGGCUGAUGCCUCCAAA, the “self-cleavage kobs at 40 uM GlcN6P” value in data set [1] is < 1e-05 s⁻¹.

For AUAAAAGCGCCAGAACUACAGAAAUGUAGUUGACGAGGAGAAGGUUUAUCAAAUUUUCGGCGGAUGCCUCCAAA, the “self-cleavage kobs at 40 uM GlcN6P” value in data set [1] was < 1e-05 s⁻¹. Also, the “self-cleavage kobs at 640 uM GlcN6P” value in data set [3] was < 1e-05 s⁻¹. Besides, the “self-cleavage kobs at 160 uM GlcN6P” value in data set [4] is < 1e-05 s⁻¹. The “self-cleavage kobs at 2500 uM GlcN6P” value in data set [5] was < 1e-05 s⁻¹. For the same variant, the “self-cleavage kobs at 10000 uM GlcN6P” value in data set [2] is < 1e-05 s⁻¹.

As for AUAAAAGCGCCAGAACUACAGAAAUGUAGUUGACGAGGAAGAGGUUUAUCGAAUUUUCGGCGUAUGCCUCCAAA, the “self-cleavage kobs at 40 uM GlcN6P” value in data set [1] is < 1e-05 s⁻¹. The “self-cleavage kobs at 640 uM GlcN6P” value in data set [3] was < 1e-05 s⁻¹. Also, in data set [4], the “self-cleavage kobs at 160 uM GlcN6P” value is < 1e-05 s⁻¹. Besides, the “self-cleavage kobs at 2500 uM GlcN6P” value in data set [5] is < 1e-05 s⁻¹. The “self-cleavage kobs at 10000 uM GlcN6P” value in data set [2] is < 1e-05 s⁻¹.

For AUAAAAGCGCCAGAACUACAGAAAUGUAGUUGACGAGGAGCAAGUUUAUCGAAUUUUCGGCGGAUGCCUCCAAA, the “self-cleavage kobs at 40 uM GlcN6P” value in data set [1] is < 1e-05 s⁻¹. The “self-cleavage kobs at 640 uM GlcN6P” value in data set [3] is < 1e-05 s⁻¹. Further, in data set [4], the “self-cleavage kobs at 160 uM GlcN6P” value is < 1e-05 s⁻¹. In addition, in data set [2], the “self-cleavage kobs at 10000 uM GlcN6P” value is < 1e-05 s⁻¹.

For AUAAAAGCGCCAGAACUACAGAAAUGUAGUUGACGAGUAGGAGGUUUAGCGAAUUGUCGGCGGAUGCCUCCAAA, in data set [1], the “self-cleavage kobs at 40 uM GlcN6P” value is < 1e-05 s⁻¹. Moreover, the “self-cleavage kobs at 2500 uM GlcN6P” value in data set [5] is < 1e-05 s⁻¹. The “self-cleavage kobs at 10000 uM GlcN6P” value in data set [2] is < 1e-05 s⁻¹.

With AUAAAAGCGCCAGAACUACAGAAAUGUAGUUGACGAGGAGAAGGUUUAUCGAAUUUUCGGCGGCUGCCUCCAAA, the “self-cleavage kobs at 40 uM GlcN6P” value in data set [1] is < 1e-05 s⁻¹. Moreover, in data set [3], the “self-cleavage kobs at 640 uM GlcN6P” value is < 1e-05 s⁻¹. Moreover, in data set [4], the “self-cleavage kobs at 160 uM GlcN6P” value was < 1e-05 s⁻¹. Besides, the “self-cleavage kobs at 2500 uM GlcN6P” value in data set [5] is < 1e-05 s⁻¹. Besides, the “self-cleavage kobs at 10000 uM GlcN6P” value in data set [2] was < 1e-05 s⁻¹.

Take AUAAAAGCGCCAGAACUACAGAAAUGUAGUUGACGAGGAUGAGGUUUACCGAAUUUUCGGCGGAUGCCUCCAAA: the “self-cleavage kobs at 40 uM GlcN6P” value in data set [1] was < 1e-05 s⁻¹.

As for AUAAAAGCGCCAGAACUACAGAAAUGUAGUUGACGAGGACGAGGUUUAUCGAAUUUUCCGCGGAUGCCUCCAAA, the “self-cleavage kobs at 40 uM GlcN6P” value in data set [1] is < 1e-05 s⁻¹. The “self-cleavage kobs at 2500 uM GlcN6P” value in data set [5] was < 1e-05 s⁻¹. In addition, the “self-cleavage kobs at 10000 uM GlcN6P” value in data set [2] is < 1e-05 s⁻¹.

For AUAAAAGCGCCAGAACUACAGAAAUGUAGUUGACGAGGUGGAGGUUUAUCGAAUUUUCGGCGGAUCCCUCCAAA, the “self-cleavage kobs at 40 uM GlcN6P” value in data set [1] was 5.39e-05 ± 1.3e-05 s⁻¹.

Take AUAAAAGCGCCAGAACUACAGAAAUGUAGUUGACGAGGAGCAGGUUUACCGAAUUUUCGGCGGAUGCCUCCAAA: the “self-cleavage kobs at 40 uM GlcN6P” value in data set [1] is < 1e-05 s⁻¹. Moreover, the “self-cleavage kobs at 640 uM GlcN6P” value in data set [3] was < 1e-05 s⁻¹. For the same variant, the “self-cleavage kobs at 160 uM GlcN6P” value in data set [4] is < 1e-05 s⁻¹. In addition, the “self-cleavage kobs at 2500 uM GlcN6P” value in data set [5] was < 1e-05 s⁻¹.

Consider AUAAAAGCGCCAGAACUACAGAAAUGUAGUUGACGAGGAGUAGGUUUAUUGAAUUUUCGGCGGAUGCCUGCAAA, for which the “self-cleavage kobs at 40 uM GlcN6P” value in data set [1] is < 1e-05 s⁻¹.

As for AUAAAAGCGCCAGAACUACAGAAAUGUAGUUGACGAGGAGACGGUUUUUGGAAUUUUCGGCGGAUGCCUCCAAA, in data set [1], the “self-cleavage kobs at 40 uM GlcN6P” value was < 1e-05 s⁻¹. Also, the “self-cleavage kobs at 10000 uM GlcN6P” value in data set [2] is < 1e-05 s⁻¹.

Turning to AUAAAAGCGCCAGAACUACAGAAAUGUAGUUGACGAGGAAGAGGUUUAUCGAAUUUUCGUCGGAUGCCUCCAAA, in data set [1], the “self-cleavage kobs at 40 uM GlcN6P” value is < 1e-05 s⁻¹. For the same variant, the “self-cleavage kobs at 640 uM GlcN6P” value in data set [3] is < 1e-05 s⁻¹. Moreover, the “self-cleavage kobs at 160 uM GlcN6P” value in data set [4] is < 1e-05 s⁻¹. The “self-cleavage kobs at 2500 uM GlcN6P” value in data set [5] was < 1e-05 s⁻¹. The “self-cleavage kobs at 10000 uM GlcN6P” value in data set [2] was < 1e-05 s⁻¹.
